Assay results from PubChem BioAssay AID504832 (National Center for Advancing Translational Sciences (NCATS), 2011).
Screen size: about 310,000 compounds; about 18,000 (5.8%) were called active. The shares of active, inactive and inconclusive entries below differ from those in the screen. Calls come from the whole dose curve; as a rule, active = well fitted inhibition curve with a large enough effect; inconclusive = small, poorly fitted or top-dose-only effect, or another doubt; inactive = no such curve, though single readings can be large or run the other way. Potencies of inconclusive entries are left out as doubtful fits.

Experiment: Primary qHTS for delayed death inhibitors of the malarial parasite plastid, 48 hour incubation
Conditions: P. falciparum luciferase growth in erythrocytes; series mostly up to 28.7 µM; activity change, negative = inhibition: at the top concentration
Method in brief: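 Parasite viability was followed by luminescence of a genomically integrated firefly luciferase. Cultures held 0.1% parasitemia at 2% hematocrit (final), incubated under 5% CO2 at 37 C.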
% is set by controls: 0 for no effect and ±100 for the full control effect; potency is the fitted concentration of half-maximal effect; tags give direction and shape of the fitted curve.

| SMILES | Potency | activity change, negative = inhibition |
| --- | --- | --- |
| C=CCOc1ccc(/C=C/C(=O)OCC(=O)N2CCC(c3ccccc3)=N2)cc1 | inconclusive [inhibitor, single point] | – |
| Cc1ccc(C)c(-c2nnc(NC(=O)CCS(=O)(=O)c3ccc(F)cc3)o2)c1 | – | inactive: 11.2% |
| O=C(Nc1ccccc1)N1CCc2ccccc2C1 | – | inactive: 216% |
| Cc1[nH]c2ccccc2c1-c1nc2ccccc2[nH]1 | inconclusive [inhibitor, partial curve, poor fit] | – |
| COc1ccc(NC(=O)C2CCCN(c3nn4c(=O)cc(C)nc4s3)C2)cc1 (centres undefined) | inconclusive [inhibitor, single point] | – |
| Cc1nc(Nc2cccc(O)c2)c2c3c(sc2n1)CCC3 | inconclusive [inhibitor, partial curve, poor fit] | – |
| CCOC(=O)c1c(-c2ccc(OC)cc2)oc2ccc(OC(=O)N(C)C)cc12 | inconclusive [inhibitor, single point] | – |
| COc1ccc(-c2nc3nc(C)cc(C)n3n2)cc1 | – | inactive: 110% |
| CN1CC(c2ccc(Cl)c(Cl)c2)[C@@]2(COc3ccccc3C2=O)[C@@]12C(=O)Nc1ccccc12 (some centres undefined) | active: 3.29 µM | – |
| CC1(C)CC(=O)C(C(=O)c2ccccc2)C(=O)C1Cl (centres undefined) | inconclusive [inhibitor, single point] | – |
| COc1cc(-c2[nH]ncc2CN2CCN(Cc3cccs3)CC2)cc(OC)c1OC | inconclusive [inhibitor, single point] | – |
| COc1cc(OC)c2c(-c3ccccc3)cc(=O)oc2c1C(CCN1CCCCC1)c1ccc(N(C)C)cc1 (centres undefined) | active: 10.4 µM | – |
| COc1cccc(-c2sc3ccc(OC)cc3c2C#CCC(C)O)c1 (centres undefined) | inconclusive [inhibitor, single point] | – |
| CCc1nnc(NC(=O)c2cc(-c3ccc(C)o3)nc3ccccc23)s1 | inconclusive [inhibitor, single point] | – |
| CCOC(=O)c1c(C)[nH]c(C)c1C(=O)COC(=O)c1ccc(OC)cc1 | inconclusive [inhibitor, single point] | – |
| CCC(=O)N(Cc1cc2c(C)ccc(C)c2[nH]c1=O)C1CCCCC1 | inconclusive [inhibitor, single point] | – |
| CCN(CC)C(=O)c1ccc(C(=O)Nc2ccc(F)cc2)cc1 | – | inactive: 5.04% |
| O=C(Nc1cccnc1Cl)c1ccc(S(=O)(=O)N2CCCCCC2)cc1 | inconclusive [inhibitor, partial curve] | – |
| Cc1ccc(NC(=O)NCCCN2CCCC2=O)cc1C | – | inactive: 44.1% |
